Results: PubChem BioAssay AID1745845 (National Center for Advancing Translational Sciences (NCATS), 2022)
Out of some 360,000 compounds screened, about 2,600 (0.72%) were called active. Inconclusive results, whose numbers are uncertain, are shown with a selection of clear calls. Calls follow the shape of the dose curve; as a rule, active = well fitted inhibition curve with a large enough effect; inconclusive = small, poorly fitted or top-dose-only effect; inactive = no such curve, though single readings can be large or run the other way. Potencies of inconclusive entries are doubtful fits and often do not repeat.

test: Primary qHTS for Inhibitors of ATXN expression; settings: HEK-293 ATXN2-luciferase reporter, luminescence, 24 h; series mostly up to 57 µM; also: nearly all actives have a fitted effect of over 55% in size
Summary of the method: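 ATXN2-luciferase reporter cells (luciferase flanked by upstream and downstream ATXN2 gene portions) were treated 24 h at 37 °C with compounds at up to 57 uM. SteadyGlo luminescence gave expression; GF-AFC fluorescence gave viability.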
Potency is read from the fitted curve at half-maximal effect; tags tell the direction and shape of the fitted curve.

Row | Compound | Potency
1 | CCCCC1=CC2=CC(=O)C(C)(OC(=O)CC)C(=O)C2=CN1CCc1c[nH]c2ccccc12 (stereo unspecified) | inactive
2 | CN(C)Cc1ccc(F)cc1Sc1ccc(Cl)cc1Cl | inconclusive: 25.1 µM [inhibitor, partial curve, poor fit]
3 | COc1ccc(NC(=O)CN(C)C(=O)c2cn(-c3ccccc3)nc2-c2ccc(F)cc2)cc1 | inconclusive: 25.1 µM [inhibitor, single point]
4 | CCN(CC)c1ncnc2c1[nH]c1ccccc12 | inconclusive: 22.4 µM [inhibitor, single point]
5 | Cc1c(Cl)ccc2c(C(=O)NCCCn3nccc3C)cc(-c3ccccn3)nc12 | inactive
6 | O=C(Cn1nc(-c2ccc(Cl)cc2)ccc1=O)NCCc1ccccc1 | inactive
7 | CC(C)SCc1cc(N2CCCC2)nc(-c2ccccc2)n1 | inactive
8 | CNc1nc(NCC2CCCCC2)c2sccc2n1 | inconclusive: 17.8 µM [inhibitor, single point]
9 | Cc1ccc(Cl)cc1N(C)C(=O)C1CCCN(c2ncnc3onc(-c4ccc(F)cc4)c23)C1 (stereo unspecified) | inconclusive: 35.5 µM [inhibitor, single point]
10 | O=C(/C=C/c1cc(Br)ccc1O)c1ccco1 | inconclusive: 35.5 µM [inhibitor, single point]
11 | CCCc1[nH]nc2c1C(c1ccc(Br)s1)C(C#N)=C(N)O2 (stereo unspecified) | inconclusive: 22.4 µM [inhibitor, partial curve, poor fit]
12 | Cc1ccccc1NC(=O)CN1C(=O)NC2(CCCCCCC2)C1=O | inactive
13 | Cc1cccc(CS(=O)(=O)Cc2ccc(C(=O)NCCCN3CCOCC3)o2)c1 | inconclusive: 28.2 µM [inhibitor, partial curve, poor fit]
14 | CC(C)C[C@H]1CNC(=S)N1CC1CCCN1C[C@H](CC(C)C)N1C[C@H](Cc2ccc(O)cc2)N(CC2CCCCCC2)C1=S (stereo partly specified) | inconclusive: 39.8 µM [inhibitor, single point]
15 | Cc1nn(-c2ccccc2)c(Cl)c1C(=O)NCc1cccs1 | inactive
16 | CN(Cc1ccccc1)C(=O)c1nc[nH]c1C(=O)N1CCN(c2ccccc2)CC1 | inactive
17 | CCOC(=O)c1c(N)sc(C(O)(C(F)(F)F)C(F)(F)F)c1-c1ccc(F)cc1 | inactive
18 | COc1cc(/C=C/C(=O)c2ccc(C)cc2)ccc1OCC#N | inconclusive: 35.5 µM [inhibitor, single point]
19 | CCC[C@@H]1C[C@@]1(CCC)[C@@H](NP(=O)(c1ccccc1)c1ccccc1)c1ccc(C(=O)OC)cc1 | inconclusive: 39.8 µM [inhibitor, single point]
20 | O=C(NNC(=O)c1ccccc1O)c1ccc(S(=O)(=O)Nc2ccccc2F)cc1 | inconclusive: 10 µM [inhibitor, partial curve, poor fit]
21 | O=C(CN1c2ccccc2S(=O)(=O)c2ccccc21)Nc1cccc(C(F)(F)F)c1 | inconclusive: 35.5 µM [inhibitor, partial curve, poor fit]

Row | Compound | Potency
22 | COc1ccc(Br)cc1CN1CCN(Cc2c[nH]c3ccccc23)CC1 | inconclusive: 42.3 µM [inhibitor, partial curve, poor fit]
23 | O=C(Cc1csc(Nc2nc(=S)[nH]c3ccccc23)n1)NCCCN1CCN(c2ccccc2F)CC1 | inconclusive: 29.9 µM [inhibitor, partial curve, poor fit]
24 | O=C(c1ccc2c(=O)n(Cc3ccccc3Cl)c(=S)[nH]c2c1)N1CCCC1 | inactive
25 | Cc1ccc2c(c1)nnn2C1CCN(S(=O)(=O)c2ccc(C(=O)N3C(C)CCCC3C)cc2)CC1 (stereo unspecified) | inconclusive: 14.1 µM [inhibitor, partial curve]
26 | N#Cc1c(NC(=O)c2ccc([N+](=O)[O-])o2)sc2c1CCC2 | inconclusive: 37.7 µM [inhibitor, single point]
27 | CCN(Cc1ccccc1)c1ccc(/C=N/N=C(N)N)cc1 | inconclusive: 28.2 µM [inhibitor, single point]
28 | CCCCNc1cc(C)nc(NCc2ccccc2)n1 | inconclusive: 31.6 µM [inhibitor, partial curve]
29 | CCc1nnc(NC(=O)CSc2nnc(-c3ccco3)o2)s1 | inactive
30 | C[C@@H]1[C@H](C)CC[C@]2(C(=O)O)CC[C@]3(C)C(=CC[C@@H]4[C@@]5(C)CC[C@H](O)C(C)(C)[C@H]5CC[C@]43C)[C@@H]12 | active: 55.9 µM
31 | O=C1CCCc2nc(N3CCc4ccccc43)ncc21 | inactive
32 | C=CC[C@H](CC(=O)N(CCO)Cc1ccccc1)C(=O)N[C@H](COC(=O)[C@@H](CC=C)CC(=O)OC(C)(C)C)Cc1c[nH]c2ccccc12 | active: 22.4 µM
33 | C[C@@H]1CN([C@@H](C)CO)S(=O)(=O)c2ccc(Br)cc2O[C@H]1CN(C)Cc1ccccc1F | inconclusive: 31.6 µM [inhibitor, single point]
34 | O=c1c(Cl)c(N/N=C/c2ccc(Br)cc2)cnn1-c1ccccc1 | inconclusive: 39.8 µM [inhibitor, single point]
35 | N#C/C(=C\c1ccc([N+](=O)[O-])o1)c1nc2ccccc2[nH]1 | active: 12.6 µM
36 | Cc1cc(C)n2nc(C(=O)N/N=C/c3c4ccccc4cc4ccccc34)nc2n1 | inconclusive: 39.8 µM [inhibitor, single point]
37 | CC(C)C[C@@H](CN1CCCC1CN1C(=S)NC[C@@H]1Cc1ccccc1)N1C[C@H](Cc2ccccc2)N(CCc2ccccc2)C1=S (stereo partly specified) | inconclusive: 10 µM [inhibitor, partial curve, poor fit]
38 | Cc1ccccc1NC(=O)c1ccc(N(Cc2ccccc2)S(C)(=O)=O)cc1 | inconclusive: 35.5 µM [inhibitor, single point]
39 | CCOC(=O)N1CCN(C(=O)c2ccc3c(c2)N(Cc2ccc(C)cc2)CCS3)CC1 | inconclusive: 12.6 µM [inhibitor, partial curve]
40 | CCCCC(=O)NNC(=S)NC(=O)c1ccc(C)cc1 | inconclusive: 28.2 µM [inhibitor, single point]
41 | CCc1nc(N2CCCC(C)C2)c2oc3ccccc3c2n1 (stereo unspecified) | inactive
